# Assay results: US20130251713A1 (published 2013)
# T1: CD86Ig (UniProt P42081 24-247, limits assumed)
# T1 construct: Immobilized on BIAcore chips; also called soluble CD86Ig; not shown: Immunoglobulin portion
# T1 sequence (looked up): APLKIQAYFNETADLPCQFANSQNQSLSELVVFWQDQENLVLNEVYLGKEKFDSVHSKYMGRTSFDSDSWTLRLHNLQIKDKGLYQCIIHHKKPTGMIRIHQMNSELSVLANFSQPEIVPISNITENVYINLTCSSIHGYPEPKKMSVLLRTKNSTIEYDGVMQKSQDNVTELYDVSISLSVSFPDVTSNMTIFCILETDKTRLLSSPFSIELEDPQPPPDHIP
# B1: L104EA29LIg (Fc fusion)
# chain: MHVAQPAVVLASSRGIASFVCEYASPGKLTEVRVTVLRQADSQVTEVCAATYMMGNELTFLDDSICTGTSSGNQVNLTIQGLRAMDTGLYICKVELMYPPPYYEGIGNGTQIYVIDPEPCPDSDQ[gap - human IgG1 Fc with changes]
# notes: Tested as COS cell culture medium in the SPR off-rate screen
# B2: L104EA29WIg (Fc fusion)
# chain: MHVAQPAVVLASSRGIASFVCEYASPGKWTEVRVTVLRQADSQVTEVCAATYMMGNELTFLDDSICTGTSSGNQVNLTIQGLRAMDTGLYICKVELMYPPPYYEGIGNGTQIYVIDPEPCPDSDQ[gap - human IgG1 Fc with changes]
# notes: as for B1
# B3: L104EA29TIg (Fc fusion)
# chain: MHVAQPAVVLASSRGIASFVCEYASPGKTTEVRVTVLRQADSQVTEVCAATYMMGNELTFLDDSICTGTSSGNQVNLTIQGLRAMDTGLYICKVELMYPPPYYEGIGNGTQIYVIDPEPCPDSDQ[gap - human IgG1 Fc with changes]
# notes: as for B1
# Target: T1, CD86Ig
# Assay: SPR screen of COS culture media over immobilized CD86Ig
row,fold slower 'off' rate than wild type CTLA4Ig [fold],Binder
1,~4,B1
2,~4,B2
3,~4,B3
